# Measurements published in publication PMC6102074 (European journal of medicinal chemistry, 2018).
# Biological target: T1, human RXFP1 (Homo sapiens, UniProt Q9HBX9)
# T1 sequence (Q9HBX9 1-757): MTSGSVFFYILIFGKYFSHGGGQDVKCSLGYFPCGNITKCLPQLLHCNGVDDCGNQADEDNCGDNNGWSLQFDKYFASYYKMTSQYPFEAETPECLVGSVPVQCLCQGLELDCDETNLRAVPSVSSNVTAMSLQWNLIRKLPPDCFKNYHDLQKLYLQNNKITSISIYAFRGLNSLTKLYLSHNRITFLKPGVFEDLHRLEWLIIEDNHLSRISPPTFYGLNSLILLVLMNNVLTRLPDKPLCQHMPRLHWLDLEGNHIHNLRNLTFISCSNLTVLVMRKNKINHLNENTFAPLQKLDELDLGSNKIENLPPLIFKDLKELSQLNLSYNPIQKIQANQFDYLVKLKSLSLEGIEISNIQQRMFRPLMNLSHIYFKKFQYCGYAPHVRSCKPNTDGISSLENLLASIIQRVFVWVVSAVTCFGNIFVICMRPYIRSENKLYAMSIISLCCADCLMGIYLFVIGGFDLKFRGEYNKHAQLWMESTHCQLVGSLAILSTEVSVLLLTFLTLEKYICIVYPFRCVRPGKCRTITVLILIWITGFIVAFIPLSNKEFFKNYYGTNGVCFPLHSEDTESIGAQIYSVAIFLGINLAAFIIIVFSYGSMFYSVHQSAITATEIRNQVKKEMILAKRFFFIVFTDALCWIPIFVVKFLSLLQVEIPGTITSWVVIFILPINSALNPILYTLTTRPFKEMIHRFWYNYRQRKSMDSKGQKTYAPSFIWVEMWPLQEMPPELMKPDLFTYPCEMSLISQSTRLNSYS
SMILES,reduction in activity from compound 40 (relative to compound 40),reduction in activity from parent compound 3 (relative to compound 3)
"CCOc1ccccc1C(=O)Nc1ccncc1C(=O)Nc1cccc(S(=O)(=O)C(F)(F)F)c1 [Compound 51, 4-(2-Ethoxybenzamido)-N-(3-((trifluoromethyl)sulfonyl)phenyl)nicotinamide]",~3 fold,–
"O=C(Nc1cccc(C(F)(F)F)c1)c1ccccc1NC(=O)C1CC1 [Compound 27, 2-(Cyclopropanecarboxamido)-N-(3-(trifluoromethyl)phenyl)benzamide]",–,> 4 fold
